Measurements taken from the supplement of paper PMC12645437, “Orthogonal IMiD-Degron Pairs Induce Selective Protein Degradation in Cells” (ACS Chemical Biology, 2025).
This is one part of the list.

target: no compound (DMSO); assay: log2 fold change of degron read counts, EGFP-low vs EGFP+ sorted cells; higher = lower degron-EGFP level without compound (poor expression or instability); conditions: compound: DMSO control; 18 h
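Note: jurkat cells carrying a lentiviral library of mutant zinc finger degrons fused to EGFP plus mCherry, mCherry+ cells FACS sorted, degron abundance counted by next-generation sequencing.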

Which “log2 fold change of degron read counts” value does the source give for FCCPQCGAFFTQKGNLLRHIKL here?
The value was 0.0128.

How did the “log2 fold change of degron read counts” value turn out when FHCDQCGASFTQKGNLLRHIKL was run?
Its value is -1.61.

How did the “log2 fold change of degron read counts” value turn out when FFCNQCGHFFTQKGNLLRHIKL was run?
The value was 1.2.

With FMCPICGHDFTQKGNLLRHIKL as the sequence, how does the “log2 fold change of degron read counts” value read?
The value was -0.0662.

How did the “log2 fold change of degron read counts” value turn out when FMCNQCGRIFTQKGNLLRHIKL was run?
The value was 0.817.

FWCEQCGAPFTQKGNLLRHIKL was tested. Which “log2 fold change of degron read counts” value did it give?
The value was 0.291.

How did the “log2 fold change of degron read counts” value turn out when LQCPICGFHCTQKGNLLRHIKL was run?
Its value is 0.741.

With FLCSVCGHAFTQKGNLLRHIKL as the sequence, how does the “log2 fold change of degron read counts” value read?
The value was -0.625.

For FFCEICGRDFTQKGNLLRHIKL, which “log2 fold change of degron read counts” value is on record?
The value was -2.4.

FNCNQCGHEFTQKGNLLRHIKL was tested. Which “log2 fold change of degron read counts” value did it give?
The value was -0.248.

For FNCPICGAYFTQKGNLLRHIKL, which “log2 fold change of degron read counts” value is on record?
Its value is 0.819.

FACNVCGACFTQKGNLLRHIKL was tested. Which “log2 fold change of degron read counts” value did it give?
Its value is -0.628.

Which “log2 fold change of degron read counts” value does the source give for LWCPICGFHCTQKGNLLRHIKL here?
The value was 2.31.

For FKCPQCGAAFTQKGNLLRHIKL, which “log2 fold change of degron read counts” value is on record?
Its value is -0.983.
